Measurements reported in the antibiotic and cytotoxicity screens of Wong et al. (2023).
This is one part of the list.

Experiments:
HSkMC = human skeletal muscle cells; assay: cytotoxicity call (relative viability < 0.9); settings: 10 µM
HepG2 = assay: cytotoxicity call (relative viability < 0.9); settings: 10 µM
S. aureus RN4220 = assay: growth inhibition call (relative growth <= 0.2); settings: 50 µM

SMILES	cytotoxicity call (HSkMC)	cytotoxicity call (HepG2)	growth inhibition call (S. aureus RN4220)
C[C@@H](O)C#Cc1cnc2c(c1)C(=O)N([C@@H](C)CO)C[C@H](C)[C@H](CN(C)C(=O)Nc1ccc(C(F)(F)F)cc1)O2	inactive	inactive	inactive
COc1ccc(CN(C)C[C@H]2Oc3ccc(NC(=O)C4CC4)cc3CC(=O)N([C@@H](C)CO)C[C@@H]2C)cc1	inactive	inactive	inactive
COc1ccc(CN(C)C[C@H]2Oc3c(NC(=O)c4ccc(-c5nccs5)cc4)cccc3C(=O)N([C@@H](C)CO)C[C@@H]2C)cc1	inactive	inactive	inactive
CCS(=O)(=O)Nc1ccc2c(c1)C(=O)N(C)[C@H]1CC[C@H](CC(=O)N[C@H]3CCN(Cc4ccccc4)C3)O[C@H]1CO2	inactive	inactive	inactive
COc1ccc(NC(=O)N(C)C[C@H]2Oc3ccc(NS(C)(=O)=O)cc3C(=O)N([C@H](C)CO)C[C@@H]2C)cc1	inactive	inactive	inactive
Cc1noc(C)c1NC(=O)Nc1ccc2c(c1)C(=O)N([C@@H](C)CO)C[C@H](C)[C@@H](CN(C)Cc1ccccc1)OCCCC[C@H](C)O2	inactive	inactive	inactive
CCS(=O)(=O)N1C[C@]2(C1)CN([C@@H](CO)c1c2c2ccc(cc2n1C)OC)C(=O)Nc1c(noc1C)C	inactive	inactive	inactive
COc1ccc2c3c([nH]c2c1)[C@@H](CO)N(C[C@]13CN(CC2CCCCC2)C1)C(=O)Nc1cccc(c1)F	active	active	inactive
CNC(C)C1CCC(N)C(OC2C(N)CC(N)C(OC3OCC(C)(O)C(NC)C3O)C2O)O1.O=S(=O)(O)O (stereo not drawn)	inactive	active	inactive
COC(=O)C1=COC(OC2OC(CO)C(O)C(O)C2O)C2C(C)CC(=O)C12 (stereo not drawn)	inactive	inactive	inactive
Cc1ccc(S(=O)(=O)N(C)C[C@@H]2Oc3ccc(NS(C)(=O)=O)cc3CC(=O)N([C@@H](C)CO)C[C@@H]2C)cc1	inactive	inactive	inactive
C[C@H](CO)N1C[C@H](C)[C@H](CN(C)S(=O)(=O)c2ccccc2)Oc2c(NC(=O)C3CC3)cccc2C1=O	inactive	inactive	inactive
C[C@@H]1CCCCO[C@H](CN(C)Cc2ccc(C(=O)O)cc2)[C@H](C)CN([C@H](C)CO)C(=O)c2cc(NS(=O)(=O)c3ccccc3)ccc2O1	inactive	inactive	inactive
O=C1CNCCN1C1CCCC1	inactive	inactive	inactive
C[C@@H]1CN([C@@H](C)CO)C(=O)Cc2cc(NS(=O)(=O)c3ccc(Cl)cc3)ccc2O[C@@H]1CN(C)Cc1ccc(C(F)(F)F)cc1	active	active	inactive
C[C@H](CO)N1C[C@H](C)[C@@H](CN(C)S(=O)(=O)c2ccccc2)Oc2ccc(NC(=O)Nc3cccc4ccccc34)cc2C1=O	inactive	inactive	inactive
O=C(C[C@H]1C[C@H]2c3cc(NC(=O)c4ccc5c(c4)OCO5)ccc3O[C@H]2[C@@H](CO)O1)NCCc1ccccc1	inactive	inactive	inactive
CCN(CCO)C(=O)C1CN(C(C)=O)C1	inactive	inactive	inactive
CCCOc1cc(C)c(N)cc1C	inactive	inactive	inactive
C[C@@H]1CCCCO[C@@H](CN(C)S(=O)(=O)c2ccc(F)cc2)[C@H](C)CN([C@@H](C)CO)C(=O)c2cc(NC(=O)Nc3ccc(F)cc3)ccc2O1	inactive	inactive	inactive
C[C@@H]1CN([C@@H](C)CO)C(=O)c2cc(NC(=O)NC3CCCCC3)ccc2O[C@@H](C)CCCCO[C@H]1CN(C)C(=O)C1CCCCC1	inactive	active	inactive

SMILES	cytotoxicity call (HSkMC)	cytotoxicity call (HepG2)	growth inhibition call (S. aureus RN4220)
C[C@H](CO)N1C[C@H](C)[C@@H](CN(C)Cc2ccc3c(c2)OCCN3C)OCc2cnnn2CCCC1=O	inactive	inactive	inactive
COc1ccc(NC(=O)Nc2ccc3c(c2)C(=O)N([C@H](C)CO)C[C@H](C)[C@H](CN(C)C(=O)Nc2ccc4c(c2)OCO4)OCCCC[C@@H](C)O3)cc1	inactive	inactive	inactive
Cc1noc(C)c1NC(=O)Nc1ccc2c(c1)CC(=O)N([C@H](C)CO)C[C@@H](C)[C@@H](CN(C)S(=O)(=O)c1c(C)noc1C)O2	inactive	inactive	inactive
C[C@H](CO)N1C[C@H](C)[C@H](CN(C)Cc2ccncc2)Oc2c(NS(=O)(=O)c3cn(C)cn3)cccc2C1=O	inactive	inactive	inactive
COc1ccc([Si](C)(C)[C@@H]2[C@@H](CCn3cc([C@H](O)c4ccccc4)nn3)O[C@]3(C(=O)N(Cc4ccc(N5CCC5=O)cc4)c4ccccc43)[C@H]2C)cc1	inactive	inactive	inactive
C[C@H](CO)N1C[C@H](C)[C@H](CN(C)C(=O)NC2CCCCC2)Oc2ccc(NC(=O)C3CC3)cc2C1=O	inactive	inactive	inactive
Cc1ccc(N2NC(=O)/C(=N/O)C2=O)cc1C	inactive	inactive	inactive
Cc1ncc([N+](=O)[O-])cc1C(=O)O	inactive	inactive	inactive
Cc1cn2c(nc1=O)O[C@@H]1C[C@H]2O[C@@H]1CO	inactive	inactive	inactive
CS(=O)(=O)Nc1cccc(C2=NN(c3nc(-c4ccccc4)c4cc(Cl)ccc4n3)[C@H](c3ccco3)C2)c1	inactive	inactive	inactive
CC(C)NC(=O)Nc1cccc2c1O[C@@H](CN(C)Cc1ccc(-c3ccccc3)cc1)[C@@H](C)CN([C@@H](C)CO)C2=O	inactive	inactive	inactive
CC(C)NC(=O)Nc1cccc2c1O[C@@H](CN(C)C(=O)NC1CCCCC1)[C@@H](C)CN([C@@H](C)CO)C2=O	inactive	inactive	inactive
O=C(C[C@@H]1CC[C@H]2[C@@H](COC[C@@H](O)CN2C(=O)c2ccc3c(c2)OCO3)O1)NCCN1CCCCC1	inactive	active	inactive
O=C(O)[C@@H]1CCCCN1	inactive	inactive	inactive
C[C@H](CO)N1C[C@H](C)[C@@H](CN(C)Cc2ccc(Oc3ccccc3)cc2)Oc2ccc(NC(=O)Cn3cnnn3)cc2CC1=O	inactive	inactive	inactive
Cc1noc(C)c1NC(=O)Nc1cccc2c1O[C@H](CN(C)Cc1ccc(Cl)c(Cl)c1)[C@H](C)CN([C@H](C)CO)C2=O	inactive	inactive	inactive
C[C@@H]1CN([C@@H](C)CO)C(=O)Cc2cc(NS(C)(=O)=O)ccc2O[C@H]1CN(C)S(=O)(=O)c1ccc(F)cc1	inactive	inactive	inactive
NCCCC[C@H](NC(=O)[C@@H](NC(=O)[C@H](Cc1c[nH]c2ccccc12)NC(=O)[C@H](CCCCN)NC(=O)[C@H](CCCCN)NC(=O)[C@H](Cc1c[nH]c2ccccc12)NC(=O)[C@H](Cc1c[nH]c2ccccc12)NC(=O)[C@H](CCCCN)NC(=O)[C@@H](N)CCCCN)C(c1ccccc1)c1ccccc1)C(N)=O	inactive	inactive	inactive
C[C@@H]1CN([C@@H](C)CO)C(=O)c2cc(NS(C)(=O)=O)ccc2O[C@@H](C)CCCCO[C@H]1CN(C)C(=O)c1ccncc1	inactive	inactive	inactive
NCCNC(=O)c1nc(-c2ccc(Br)o2)no1	inactive	inactive	inactive
